This is an account of results in publication PMC12136788.

To fix the notation:
B1: chr2:240467872:240467977:+|3pUTR|ENSG00000063660|msi1|FALSE|unique (ssRNA)
RNA: GGGAGUUCUACAGUCCGACGAUCCUCUGGCACAGUGAUGCCGGGCGCCAGGACAGCAGCACUCCCGCUGCACACAGACGGCCUAGGGGUGGCGCUCAGACCCCACCCUACGCUCAUCUCUGGAAGGGGCAGCCCUGAGUGGUCCAACAGAGGAUUGAGCAUCA
B2: ENSG00000162521:stop:overlap|stop_codon|ENSG00000162521|stop_codon|NA|stop_codon (ssRNA)
RNA: GGGAGUUCUACAGUCCGACGAUCGUUCUGUAUCAGAAGACAAUAUCAUGCAAGUGUGGCAAAUGGAGUUAGUCCUUGACCACUAGUUUGAUGCCAUCUCCAUUUUGGGUGACCUGUUUCACCAGCAGGCCUGUUACUCUCCAUCAACAGAGGAUUGAGCAUCA
B3: chr2:231108229:231108516:-|three_prime_utr|ENSG00000135914|control|control|control (ssRNA)
RNA: GGGAGUUCUACAGUCCGACGAUCAAGAAUAUCUAAUUUUCCUAAUUUGGACAAGAUUAUUCCAUGAGGAAAAUAAUUUUAUAUAGCUACAAAUGAAAACAAUCCAGCACUCUGGUUAAAUUUUAAGGUAUUCGAAUGAAAUAACAACAGAGGAUUGAGCAUCA
B4: chr1:39623434:39626506:-|three_prime_utr|ENSG00000163909|control|control|control (ssRNA)
RNA: GGGAGUUCUACAGUCCGACGAUCCCCCAGUCAGGAGCAAUGACUGACUGGCUGCAGCCUUCCCACGCCAAGAGGCUGGAACAUAGUGUCUGCCUCGCUUCCUGGAGAUAGUAACUGAGCAGGGGCUACAAAGAGGUCUCCUGGCAACAGAGGAUUGAGCAUCA
B5: chr2:85649053:85649154:+|3pUTR|ENSG00000168883|unk|total|mutant (ssRNA)
RNA: GGGAGUUCUACAGUCCGACGAUCUUCAGCAGGGCAGAACCCUUCUCCAGAUGUGUGUAACUUAUGUCUUGAGUAUCUGGGAGCCGUUGAAGAACAGAUAAUUCCUUCCAAACAUCAAGCCUUGGGAUUCUUGGAGCAAGCAGACAACAGAGGAUUGAGCAUCA
B6: ENSG00000180398:stop:overlap|stop_codon|ENSG00000180398|stop_codon|NA|stop_codon (ssRNA)
RNA: GGGAGUUCUACAGUCCGACGAUCAUGAUGACAAGAACAAUGAUGGAUACAUUGACUAUGCUGAAUUUGCAAAAUCACUGCAGUAGAUGUUAUUUGGCCAUCUCCUGGUUAUAUACAAAUGUGACCCGUGAUAAUGUGAUUGAACAACAGAGGAUUGAGCAUCA
B7: chr12:48782793:48782894:-|CDS|ENSG00000174233|msi1|FALSE|unique (ssRNA)
RNA: GGGAGUUCUACAGUCCGACGAUCGCACUGUUGGCCUGUGCCGCCGCCCUGUUCGUGGGGCUCAUGGUGGUGUGUAACCGGCAUAGCUUCCGCCAGGACUCCAUGUGGGUGGUGAGCUACGUGGUGCUGGGCAUCCUGGCGGCACAACAGAGGAUUGAGCAUCA
B8: ENSG00000241258:stop:overlap|stop_codon|ENSG00000241258|stop_codon|NA|stop_codon (ssRNA)
RNA: GGGAGUUCUACAGUCCGACGAUCAGGCUGAGCAGAAGAAGAAUACAAACAGCAAUGUGGCAAUGGACGAAGAGGACCCAGCAUAGAAGAGCACAGCUGGCCCCGGCGUUUCAUGAAGUCAGAAGGCCUGGCAGCCAUUUCCUGCAACAGAGGAUUGAGCAUCA
B9: chr2:222942681:222942782:+|3pUTR|ENSG00000123983|msi1|total|mutant (ssRNA)
RNA: GGGAGUUCUACAGUCCGACGAUCAAAAUCCGUGUUUUUCCCCGUUUGCACUGAUGCGUGUAUGGAUGUGUGUGAGUCAGUGGCCGCUUAUUUAAAAAGCACCUUAUCCUUUCUCCCAUAACCUUUGUACACUAAAAAAUGAAACAACAGAGGAUUGAGCAUCA
B10: chr9:122240152:122240253:-|3pUTR|ENSG00000119446|msi1|total|mutant (ssRNA)
RNA: GGGAGUUCUACAGUCCGACGAUCCUUCUUGGAGUACCGAAUUCACCAUUUUAUCCGUAAGUCUUCAAAGGAUUAUGGUGGACCCGAACUUACACCGUGCAAAACCGUCUUCUAUUUUUAACCGGAACUCCGAAAAAACUCCGACAACAGAGGAUUGAGCAUCA
B11: ENSG00000124766:be:win_3301|3pUTR|ENSG00000124766|bound_else_gene|NA|bound_elsewhere_windowed (ssRNA)
RNA: GGGAGUUCUACAGUCCGACGAUCAAUCUGCAGGCUUCUUAAAGUGACAGUAUCCCUUAACCUGCCACCAGUGUCCACCCUCCGGCCCCCGUCUUGUAAAAAGGGGAGGAGAAUUAGCCAAACACUGUAAGCUUUUAAGAAAAACAACAGAGGAUUGAGCAUCA
B12: chr17:67340809:67340863:-|CDS_3pUTR|ENSG00000197170|msi1_unk|total|mutant (ssRNA)
RNA: GGGAGUUCUACAGUCCGACGAUCACAAAACUACGCAUCUCACCGCCAAAGAGGAGAUGAUACAUAAUCUACAAUAAGGGUCUCCGUGCUUCCGAAAAAAGUUAAAAUUGGAAGUCAUUAAAAAAAGACUGUUAUAAUGGUGUACAACAGAGGAUUGAGCAUCA
B13: chr7:7607225:7607326:+|3pUTR|ENSG00000164654|msi1|FALSE|bound_elsewhere (ssRNA)
RNA: GGGAGUUCUACAGUCCGACGAUCUUUGAGUGAUUUUGAUAUGCUUCACAGAGACAAAUGCUGCCAAAAUAAACAUCGAAGUAUAGACAUGAGUUCUGUUCAGCAGGUUGAAAAGUCUGAUUUAGAAAAACUUUCUAAGUUUUGCAACAGAGGAUUGAGCAUCA
B14: chr21:32314052:32314153:-|3pUTR|ENSG00000142207|msi1|FALSE|unique (ssRNA)
RNA: GGGAGUUCUACAGUCCGACGAUCCAUCUCAAAAAAAUAAAAAAAUAAAGUUUGUUUUUCUAUAAAAAGUCAUAACAAAGUAUUAGUAUGACUUUUUGAAUAAGUUAAUUUCUGCCAGUGUUUAAUUAUUUUAUUAAAGAAAAGCAACAGAGGAUUGAGCAUCA
B15: chr5:78476397:78476521:+|3pUTR|ENSG00000085365|msi1|total|mutant (ssRNA)
RNA: GGGAGUUCUACAGUCCGACGAUCAUAUAAGAAGUUUAUAUAAUAUGCAGUACAUUAUCCAAAAGAGAAGGCCGUUAAUGCAGCCGAAAGCCGUGGUAAUAAUUCCUUUUUAAAAAAAUUUCGGCCGUCAUACCGUAACAUUUUCAACAGAGGAUUGAGCAUCA
B16: chr8:143803364:143803465:-|CDS|ENSG00000180900|msi1|FALSE|unique (ssRNA)
RNA: GGGAGUUCUACAGUCCGACGAUCACCCUCACCGUGCUGGUCUGUGACGGCUUUGAGGCCAGCACCGACGCAGCCCUGGAGGUUAGCGAUCCCGCCCCGGGGACCGGGCCUCCCUCUGGCCCAGCCCAAGGUGUUGUGAGCCGCCAACAGAGGAUUGAGCAUCA
B17: chr9:114377124:114377225:-|CDS|ENSG00000106948|msi1|FALSE|unique (ssRNA)
RNA: GGGAGUUCUACAGUCCGACGAUCUCCGUUGAACUCAGCCCGGCAAGGUCCUGGAGCAGUGGGACAGUGAGCCUCGACCACCCUAGUGACAGCCUUGAUUCUACCUGGGAAGGAGAGACCGAUGGCCCCCAGCCCACUGCCCUGCAACAGAGGAUUGAGCAUCA
B18: ENSG00000127483:stop:overlap|stop_codon|ENSG00000127483|stop_codon|NA|stop_codon (ssRNA)
RNA: GGGAGUUCUACAGUCCGACGAUCCCAAAAAGGAGAGAGCUGAUAGUAUUCAUUCCACUCUUUUCAUAAUUGGUCAGAACAGUUAGAAAUUGCUUUUAACUAUAGUCAUGCAUUGCUUAACAAUGGGUAUACAUUCUGAGAGAUCAACAGAGGAUUGAGCAUCA
B19: ENSG00000165868:stop:overlap|stop_codon|ENSG00000165868|stop_codon|NA|stop_codon (ssRNA)
RNA: GGGAGUUCUACAGUCCGACGAUCAGCAGCCGGCCAAGCAGUUCAUGAGACAAGCUGCCUACCAGGCGGACCCUAUGGAUCUUUAGGAGUAGAUUAUGAGUUCGAAAAACUUCUGUAUAAAAUAUUUGGAGAGGAUUUUAUUGACAACAGAGGAUUGAGCAUCA
B20: ENSG00000067715:stop:overlap|stop_codon|ENSG00000067715|stop_codon|NA|stop_codon (ssRNA)
RNA: GGGAGUUCUACAGUCCGACGAUCAGGAGAAGUUUAUGAAUGAGUUGCAUAAAAUUCCAUUUCAAAGGAAAGAGAGUACCAAUUAGACAAGGGAAGAAGAUGAGAGACUGCCUGAACAGCAUCACUUUUGUAAACUGAGAGUUCCAACAGAGGAUUGAGCAUCA
B21: ENSG00000096070:stop:overlap|stop_codon|ENSG00000096070|stop_codon|NA|stop_codon (ssRNA)
RNA: GGGAGUUCUACAGUCCGACGAUCAGAAGGAUCCUGCACACAUCUUCGCAGAACCAGUCAACUUGAGUGAGGUUUUAUAUGUUUAGGUUCCAGAUUACCUGGAAUUCAUAUCCAAGCCAAUGGAUUUUUCUACUAUGAGGCGGACAACAGAGGAUUGAGCAUCA
B22: ENSG00000070961:be:win_551|CDS|ENSG00000070961|bound_else_gene|NA|bound_elsewhere_windowed (ssRNA)
RNA: GGGAGUUCUACAGUCCGACGAUCUGCAGAGCCGAAUUGAACAAGAACAGAAGUUCACUGUCAUCAGGGGUGGUCAGGUCAUUCAGAUACCUGUAGCUGACAUUACUGUUGGAGAUAUUGCUCAAGUGAAAUAUGGUGAUCUUCCAACAGAGGAUUGAGCAUCA

This is one part of the list.

In this test the target is MSI1 full-length (mouse, UniProt Q61474 1-362). The test can be described thus: nsRBNS (natural sequence RNA bind-n-seq); RBNS binding buffer (assumed for nsRBNS): 25 mM Tris pH 7.5, 150 mM KCl, 3 mM MgCl2, 0.01% Triton X-100, 500 ug/ml BSA, 20 U/ml SUPERase-In, 4 C; UNK is unkempt and MSI1 is Musashi-1; names of the RNAs are library labels; protein concentration not given here; high values mean tight binding.
UniProt Q61474, sequence (Q61474 whole entry): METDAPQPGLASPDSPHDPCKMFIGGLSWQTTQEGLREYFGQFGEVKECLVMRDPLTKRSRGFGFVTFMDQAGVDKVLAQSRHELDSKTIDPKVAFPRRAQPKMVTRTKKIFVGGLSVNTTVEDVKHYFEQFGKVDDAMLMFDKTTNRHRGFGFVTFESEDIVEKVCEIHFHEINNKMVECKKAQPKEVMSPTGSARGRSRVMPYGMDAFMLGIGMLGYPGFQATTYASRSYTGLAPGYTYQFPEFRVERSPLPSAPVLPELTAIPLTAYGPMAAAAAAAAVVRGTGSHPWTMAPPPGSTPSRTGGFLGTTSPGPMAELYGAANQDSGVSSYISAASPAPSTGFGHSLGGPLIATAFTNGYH
As for B1, the binding signal came out at 0.363 enrichment R. As for B2, the figure is 0.314 enrichment R; as for B3, 5.53 enrichment R; as for B4, 0.462 enrichment R. The result for B5 reads 0.345 enrichment R. As for B6, the figure is 0.631 enrichment R. Regarding B7, the binding signal stood at 0.411 enrichment R.

B8 registered a binding signal of 0.543 enrichment R. In the case of B9, the binding signal was 0.309 enrichment R.

As for B10, the binding signal stood at 0.272 enrichment R. The molecule B11 displayed a binding signal of 0.748 enrichment R. As for B12, the figure is 0.299 enrichment R. The result for B13 reads 0.472 enrichment R; that for B14, 3.03 enrichment R; that for B15, 4.43 enrichment R. The result for B16 reads 0.309 enrichment R. As for B17, the binding signal came out at 0.557 enrichment R. As for B18, the figure is 0.266 enrichment R; as for B19, 0.313 enrichment R; as for B20, 0.457 enrichment R. The result for B21 reads 0.383 enrichment R.

B22 yielded a binding signal of 0.33 enrichment R.
